Assay results published in PubChem BioAssay (NCATS).
“And” between values parts separate entries of the source, which are not always exact repeats. Equal entries are not always repeated. The source made the active and inactive calls. Unless noted, the call rests on the fitted dose curve; in most records, active means well fitted curve in the direction sought with a large enough effect; inconclusive means small, poorly fitted or top-dose-only effect, or another doubt; inactive means no such curve, though single readings can be large; an effect the other way counts as inactive or inconclusive.

Assays:
[1] = biological target: Ubiquitin carboxyl-terminal hydrolase 1 (Homo sapiens) (UniProt O94782); assay: Inhibitors of USP1/UAF1: Pilot qHTS (AID 504865); conditions: purified USP1/UAF1, Ub-rhodamine cleavage fluorescence; series mostly up to 114 µM;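 further: rhodamine fluorescence freed from ubiquitin-rhodamine substrate followed over time; nearly all actives have a fitted effect of over 35% in size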
Procedure, shortened: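 1nM USP1/UAF1 + cpd, 15 min RT; start w/ Ub-Rho 150nM final; kinetic FL 480/540 nm, 6 reads q60 s. Buffer 50mM HEPES pH 7.8, 0.5mM EDTA, 1mM TCEP, 0.01% Tween-20, 0.1 mg/ml BSA.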

[2] = biological target: Estrogen receptor (Homo sapiens) (UniProt P03372); assay: qHTS assay for small molecule antagonists of estrogen receptor alpha signaling (AID 588513; active means well fitted curve in the direction sought with a large enough effect in the signal ratio, with a control signal flat, not every such curve was filed as active; inconclusive means small, poorly fitted or top-dose-only effect, or effect the other way, or a change in a side signal; inactive means no such curve, though single readings can be large or run the other way; the % refers to the signal ratio); conditions: ER-alpha-UAS-bla HEK293, beta-lactamase ratio, antagonist mode; series mostly up to 76.9 µM
Procedure, shortened: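 Beta-lactamase reporter, antagonist mode, HEK 293 GripTite cells; 0.5nM E2 stimulus, 18 h, 37 C; CCF4 dye 2 h RT; fluorescence. IC50 and efficacy from Hill fits, normalized to E2 and DMSO.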

[3] = qHTS for Inhibitors of ATXN expression: Validation of Cytotoxic Assay (AID 588349); conditions: cytotoxicity counter-screen for ATXN expression inhibitors, cell viability; series mostly up to 57.1 µM;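 further: cells exposed to compound for 72 hr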
Procedure, shortened: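 HEK293, compound dose series, 72 hr / 37 degrees C; viability via CellTiter Glo (intracellular ATP).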

[4] = qHTS for Inhibitors of ATXN expression: Validation (AID 588378); conditions: cell-based ATXN2 expression reporter assay, luminescence; series mostly up to 57.1 µM; further: nearly all actives have a fitted effect of over 75% in size
Procedure, shortened: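 Cells: HEK293-ATXN2-FFLuc, phenol-red free DMEM, 2 h attachment. Compound pin-transfer, 24 h, 37 degrees C, 5% CO2. CellTiter-Fluor 30 min, Ex405/Em525; Bright-Glo 5 min, luminescence 2 s exposure.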
Potency means the concentration at half of the fitted maximal effect; tags describe the fitted curve by direction and shape or compound fluorescence and quenching.

Sequence of UniProt P03372 (P03372 whole entry, looked up): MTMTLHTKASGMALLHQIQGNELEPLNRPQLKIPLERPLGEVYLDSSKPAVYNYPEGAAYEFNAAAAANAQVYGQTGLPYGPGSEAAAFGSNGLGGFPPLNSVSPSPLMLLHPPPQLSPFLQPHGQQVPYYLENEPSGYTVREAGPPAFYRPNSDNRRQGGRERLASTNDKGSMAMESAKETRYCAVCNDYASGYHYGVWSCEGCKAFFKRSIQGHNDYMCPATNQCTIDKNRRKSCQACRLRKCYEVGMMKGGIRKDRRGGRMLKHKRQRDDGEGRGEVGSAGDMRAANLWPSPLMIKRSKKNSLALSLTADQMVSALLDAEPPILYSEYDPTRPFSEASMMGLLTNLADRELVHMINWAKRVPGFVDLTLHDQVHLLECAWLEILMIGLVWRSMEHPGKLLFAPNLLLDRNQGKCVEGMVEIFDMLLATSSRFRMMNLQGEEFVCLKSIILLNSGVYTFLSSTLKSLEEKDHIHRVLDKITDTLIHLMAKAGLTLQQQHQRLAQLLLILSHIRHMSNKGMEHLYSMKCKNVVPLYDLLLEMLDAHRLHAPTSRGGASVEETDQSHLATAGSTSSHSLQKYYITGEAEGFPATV
Sequence of UniProt O94782 (O94782 whole entry, looked up): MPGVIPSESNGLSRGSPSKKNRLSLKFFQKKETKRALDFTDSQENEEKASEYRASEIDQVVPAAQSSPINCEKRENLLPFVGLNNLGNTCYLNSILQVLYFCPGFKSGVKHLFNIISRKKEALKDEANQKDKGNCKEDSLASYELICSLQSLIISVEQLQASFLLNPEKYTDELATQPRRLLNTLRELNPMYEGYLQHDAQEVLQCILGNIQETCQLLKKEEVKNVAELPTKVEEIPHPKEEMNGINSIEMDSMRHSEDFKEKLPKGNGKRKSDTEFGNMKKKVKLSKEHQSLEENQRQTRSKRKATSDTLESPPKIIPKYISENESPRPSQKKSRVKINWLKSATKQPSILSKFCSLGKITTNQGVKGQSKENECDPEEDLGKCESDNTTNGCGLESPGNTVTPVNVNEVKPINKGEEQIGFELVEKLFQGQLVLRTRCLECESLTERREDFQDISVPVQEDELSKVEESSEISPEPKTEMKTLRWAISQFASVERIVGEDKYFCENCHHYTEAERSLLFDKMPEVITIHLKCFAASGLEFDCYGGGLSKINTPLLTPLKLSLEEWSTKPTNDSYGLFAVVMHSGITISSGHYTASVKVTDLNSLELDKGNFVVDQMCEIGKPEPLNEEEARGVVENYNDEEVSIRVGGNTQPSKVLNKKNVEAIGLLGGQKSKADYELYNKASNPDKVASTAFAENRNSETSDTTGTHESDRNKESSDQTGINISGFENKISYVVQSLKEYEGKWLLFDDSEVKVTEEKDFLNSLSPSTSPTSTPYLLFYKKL

## COc1ccc(C2C(=O)c3ccccc3C2=O)cc1
[1]
  Potency: inactive

## C[Si](C)(C)O[Si](C)(C)C
[1]
  Potency: inactive

## CCCc1nc(C)c2c(=O)[nH]c(-c3cc(S(=O)(=O)N4CCN(CC)CC4)ccc3OCC)nn12
[1]
  Potency: inactive

## Cc1cc(NC(=O)Nc2ccc(N(C)C)cc2)c2cc(F)cc(F)c2n1
[1]
  Potency: inactive

## CCCCC(CC)COC(=O)/C=C/c1ccc(OC)cc1 (stereo not drawn)
[1]
  Potency: inconclusive: 35.5 µM [inhibitor, partial curve]

## CCCCC/C=C\C/C=C\CCCCCCCC(=O)O
[1]
  Potency: inconclusive: 56.2 µM [inhibitor, partial curve, poor fit]
[2]
  Potency: inconclusive: 44.7 µM [falling, single point]

## N=C(N)c1ccc(OCCCCCOc2ccc(C(=N)N)cc2)cc1
[1]
  Potency: inactive and inconclusive: 39.8 µM [inhibitor, partial curve, poor fit]
[2]
  Potency: inactive

## COCC(=O)O[C@]1(CCN(C)CCCc2nc3ccccc3[nH]2)CCc2cc(F)ccc2[C@@H]1C(C)C
[1]
  Potency: inconclusive: 56.2 µM [inhibitor, partial curve]
[3]
  Potency: active: 28.2 µM
[4]
  Potency: active: 15.8 µM

## CC1=C(/C=C/C(C)=C/C=C/C(C)=C/C(=O)O)C(C)(C)CCC1
[1]
  Potency: active: 79.4 µM
[3]
  Potency: inactive
[4]
  Potency: inactive

## CN(C)c1ccc(C(=C2C=CC(=[N+](C)C)C=C2)c2ccc(N(C)C)cc2)cc1
[1]
  Potency: active: 20 µM and active: 22.4 µM
[2]
  Potency: active: 28.2 µM [inconclusive]

## Cn1cnc([N+](=O)[O-])c1Sc1ncnc2nc[nH]c12
[4]
  Potency: inactive
